B1: AGAAAAA (DNA:RNA)
RNA: GGGAGACCGGAAUUCAGAUUGUCCAGAAAAAUUAAAUCCCGUCGUAGCCACCA
DNA 1: CAATCTGAATTCCGGTCTCCC
DNA 2: TGGTGGCTACGACGGGATT
B2: AUUGCGC (DNA:RNA)
RNA: B1 RNA with G26U, A27U, A28G, A29C, A30G, A31C
DNA 1: CAATCTGAATTCCGGTCTCCC
DNA 2: TGGTGGCTACGACGGGATT
B3: GUAUCUG (DNA:RNA)
RNA: B1 RNA with A25G, G26U, A28U, A29C, A30U, A31G
DNA 1: CAATCTGAATTCCGGTCTCCC
DNA 2: TGGTGGCTACGACGGGATT
B4: CAGACUU (DNA:RNA)
RNA: B1 RNA with A25C, G26A, A27G, A29C, A30U, A31U
DNA 1: CAATCTGAATTCCGGTCTCCC
DNA 2: TGGTGGCTACGACGGGATT
B5: GAUAUAA (DNA:RNA)
RNA: B1 RNA with A25G, G26A, A27U, A29U
DNA 1: CAATCTGAATTCCGGTCTCCC
DNA 2: TGGTGGCTACGACGGGATT
B6: GGAAGAA (DNA:RNA)
RNA: B1 RNA with A25G, A29G
DNA 1: CAATCTGAATTCCGGTCTCCC
DNA 2: TGGTGGCTACGACGGGATT
B7: ACAGAUU (DNA:RNA)
RNA: B1 RNA with G26C, A28G, A30U, A31U
DNA 1: CAATCTGAATTCCGGTCTCCC
DNA 2: TGGTGGCTACGACGGGATT
B8: UGCUGUG (DNA:RNA)
RNA: B1 RNA with A25U, A27C, A28U, A29G, A30U, A31G
DNA 1: CAATCTGAATTCCGGTCTCCC
DNA 2: TGGTGGCTACGACGGGATT
B9: AUUGCGG (DNA:RNA)
RNA: B1 RNA with G26U, A27U, A28G, A29C, A30G, A31G
DNA 1: CAATCTGAATTCCGGTCTCCC
DNA 2: TGGTGGCTACGACGGGATT
B10: AGACCAA (DNA:RNA)
RNA: B1 RNA with A28C, A29C
DNA 1: CAATCTGAATTCCGGTCTCCC
DNA 2: TGGTGGCTACGACGGGATT
B11: AUCAUCC (DNA:RNA)
RNA: B1 RNA with G26U, A27C, A29U, A30C, A31C
DNA 1: CAATCTGAATTCCGGTCTCCC
DNA 2: TGGTGGCTACGACGGGATT
B12: CUCGGAG (DNA:RNA)
RNA: B1 RNA with A25C, G26U, A27C, A28G, A29G, A31G
DNA 1: CAATCTGAATTCCGGTCTCCC
DNA 2: TGGTGGCTACGACGGGATT
B13: GAAAUUC (DNA:RNA)
RNA: B1 RNA with A25G, G26A, A29U, A30U, A31C
DNA 1: CAATCTGAATTCCGGTCTCCC
DNA 2: TGGTGGCTACGACGGGATT
B14: UGAGAUC (DNA:RNA)
RNA: B1 RNA with A25U, A28G, A30U, A31C
DNA 1: CAATCTGAATTCCGGTCTCCC
DNA 2: TGGTGGCTACGACGGGATT
B15: CAGGCGA (DNA:RNA)
RNA: B1 RNA with A25C, G26A, A27G, A28G, A29C, A30G
DNA 1: CAATCTGAATTCCGGTCTCCC
DNA 2: TGGTGGCTACGACGGGATT
B16: CAUGUCG (DNA:RNA)
RNA: GGGAGACCGGAAUUCAGAUUGUCCCAUGUCGUUAAAUCCCGUCGUAGCCACCA
DNA 1: CAATCTGAATTCCGGTCTCCC
DNA 2: TGGTGGCTACGACGGGATT
B17: UAAAUUC (DNA:RNA)
RNA: B1 RNA with A25U, G26A, A29U, A30U, A31C
DNA 1: CAATCTGAATTCCGGTCTCCC
DNA 2: TGGTGGCTACGACGGGATT
B18: GCGCCUU (DNA:RNA)
RNA: GGGAGACCGGAAUUCAGAUUGUCCGCGCCUUUUAAAUCCCGUCGUAGCCACCA
DNA 1: CAATCTGAATTCCGGTCTCCC
DNA 2: TGGTGGCTACGACGGGATT
B19: UGUCGGA (DNA:RNA)
RNA: B1 RNA with A25U, A27U, A28C, A29G, A30G
DNA 1: CAATCTGAATTCCGGTCTCCC
DNA 2: TGGTGGCTACGACGGGATT
B20: CACGACA (DNA:RNA)
RNA: B16 RNA with U27C, U29A, G31A
DNA 1: CAATCTGAATTCCGGTCTCCC
DNA 2: TGGTGGCTACGACGGGATT

Numbering of substitutions follows the chain as printed; changes in the protein carry UniProt numbers. Some of the results follow.

The target of the assay is T1, RBFOX1 RRM (Homo sapiens, UniProt Q9NWB1 109-208).
T1 sequence: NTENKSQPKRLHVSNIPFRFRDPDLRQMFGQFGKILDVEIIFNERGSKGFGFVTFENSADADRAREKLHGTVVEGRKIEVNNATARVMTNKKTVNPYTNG
The experiment in a line: EMSA; HiTS-Eq, 1 nM pool, 10 min; buffer printed only for the single-RNA assays: 10 mM Tris pH 7.5, 150 mM NaCl, 3.4 mM EDTA, 0.001% NP-40, 30 C. The following applies: tags: His6 N-terminal (pET28a); label: 5' 32P. The method in brief: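 Relative association constants, normalised to the cognate motif, were derived by comparing read counts of each RNA species with those of the control reaction. The RNA sequenced was the free fraction, separated by 8% native PAGE after a 10 min equilibration in 50 µL of 1 nM 5′-radiolabelled RNA (7 randomized nucleotides) with increasing concentrations of purified wild-type or mutant RbFox RRM.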
(In general: In EMSA bound probe runs differently from free probe, usually more slowly.)
In the case of B1, the binding signal is 0.00128 KA relative to UGCAUGU. Under B2 stands 0.0173 KA relative to UGCAUGU.

On to B3, for which the binding signal was 0.015 KA relative to UGCAUGU.

On to B4, for which the binding signal was 0.00413 KA relative to UGCAUGU.

Take B5: the binding signal was 0.00469 KA relative to UGCAUGU. Under B6 stands 0.0149 KA relative to UGCAUGU; under B7, 0.00352 KA relative to UGCAUGU.

Regarding B8, the binding signal is 0.0347 KA relative to UGCAUGU.

As to B9, the binding signal was 0.0083 KA relative to UGCAUGU. In the case of B10, the binding signal was 0.00293 KA relative to UGCAUGU. Under B11 stands 0.000273 KA relative to UGCAUGU; under B12, 0.00953 KA relative to UGCAUGU; under B13, 0.00565 KA relative to UGCAUGU. Turning to B14, the binding signal was 0.0218 KA relative to UGCAUGU. Under B15 stands 0.0102 KA relative to UGCAUGU; under B16, 0.00864 KA relative to UGCAUGU.

For B17, the binding signal was 0.0047 KA relative to UGCAUGU.

Consider B18, for which the binding signal is 0.0123 KA relative to UGCAUGU. Under B19 stands 0.00662 KA relative to UGCAUGU; under B20, 0.00042 KA relative to UGCAUGU.

(Values after article PMC9911399, “Two distinct binding modes provide the RNA-binding protein RbFox with extraordinary sequence specificity”.)
